This is one part of the list.

This experiment concerns the target T1, MBP-FoxP1dN (Mus musculus, UniProt P58462 326-579).
T1 sequence: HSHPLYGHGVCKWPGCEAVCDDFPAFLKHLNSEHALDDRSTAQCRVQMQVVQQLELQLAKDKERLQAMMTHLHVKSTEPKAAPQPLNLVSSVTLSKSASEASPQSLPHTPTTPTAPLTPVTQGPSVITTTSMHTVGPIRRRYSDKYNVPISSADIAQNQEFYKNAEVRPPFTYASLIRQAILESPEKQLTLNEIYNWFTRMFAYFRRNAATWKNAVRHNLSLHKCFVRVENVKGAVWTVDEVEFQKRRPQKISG
Kind of experiment: PD-seq (MBP pull-down with sequencing); 20 mM Tris-HCl pH 7.5, 100 mM NaCl, 1.5 mM MgCl2, 0.4 uM protein, 0.1 uM dsDNA library, 30 min, room temperature, amylose pull-down; high values mean tight binding. Conditions: protein: recombinant; tags: His6-MBP; chain copies: 2; dsDNA, one strand shown. The essentials:
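His6-MBP-tagged mouse FoxP3 or FoxP1 fragment lacking the N-terminus, expressed in E. coli, was mixed at 0.4 µM with 0.1 µM Klenow-filled double-stranded degenerate DNA library. Incubation was 30 min at room temperature in Tris pH 7.5 buffer with NaCl and MgCl2. Complexes were caught on amylose resin and washed three times; DNA was released with proteinase K, PCR-barcoded and Illumina-sequenced. Binding is reads-per-million enrichment, pull-down over input, with replicates pooled.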
Turning to “GATGATTGTTCTCCCAGCTGATGAATTCTGGTGATCGAGTAAACAAATTTTCCTAATCTTTCTGTTCAAGCGCCATCTAC”, the binding signal was 0.929 RPM ratio (pull-down/input).
For “GATGATTGTTCTCCCAGCTGATGAATTACATTTATCGAGTAAACAAATTTTCCTAATCTTTCTGTTCAAGCGCCATCTAC”, the binding signal is 1.52 RPM ratio (pull-down/input).
Under “GATGATTGTTCTCCCAGCTGATGAATTAATATCCTCGAGTAAACAAATTTTCCTAATCTTTCTGTTCAAGCGCCATCTAC” stands 0.937 RPM ratio (pull-down/input); under “GATGATTGTTCTCCCAGCTGATGAATTCACTTCTTCGAGTAAACAAATTTTCCTAATCTTTCTGTTCAAGCGCCATCTAC”, 0.894 RPM ratio (pull-down/input); under “GATGATTGTTCTCCCAGCTGATGAATTTCACTCATCGAGTAAACAAATTTTCCTAATCTTTCTGTTCAAGCGCCATCTAC”, 0.918 RPM ratio (pull-down/input).
“GATGATTGTTCTCCCAGCTGATGAATTAGTGATGTCGAGTAAACAAATTTTCCTAATCTTTCTGTTCAAGCGCCATCTAC”: the binding signal is 1.25 RPM ratio (pull-down/input).
With “GATGATTGTTCTCCCAGCTGATGAATTTTCCCATTCGAGTAAACAAATTTTCCTAATCTTTCTGTTCAAGCGCCATCTAC”, the binding signal is 0.937 RPM ratio (pull-down/input).
Turning to “GATGATTGTTCTCCCAGCTGATGAATTACACTGATCGAGTAAACAAATTTTCCTAATCTTTCTGTTCAAGCGCCATCTAC”, the binding signal is 1.12 RPM ratio (pull-down/input).
With “GATGATTGTTCTCCCAGCTGATGAATTATGCAGTTCGAGTAAACAAATTTTCCTAATCTTTCTGTTCAAGCGCCATCTAC”, the binding signal was 1.01 RPM ratio (pull-down/input).
As for “GATGATTGTTCTCCCAGCTGATGAATTGAGAGCCTCGAGTAAACAAATTTTCCTAATCTTTCTGTTCAAGCGCCATCTAC”, the binding signal is 0.811 RPM ratio (pull-down/input).
Regarding “GATGATTGTTCTCCCAGCTGATGAATTAGCTTTATCGAGTAAACAAATTTTCCTAATCTTTCTGTTCAAGCGCCATCTAC”, the binding signal is 0.973 RPM ratio (pull-down/input).
For “GATGATTGTTCTCCCAGCTGATGAATTAAGTGCTTCGAGTAAACAAATTTTCCTAATCTTTCTGTTCAAGCGCCATCTAC”, the binding signal was 0.861 RPM ratio (pull-down/input).
Under “GATGATTGTTCTCCCAGCTGATGAATTTATCGGATCGAGTAAACAAATTTTCCTAATCTTTCTGTTCAAGCGCCATCTAC” stands 1.02 RPM ratio (pull-down/input).
Under “GATGATTGTTCTCCCAGCTGATGAATTGCGCAGATCGAGTAAACAAATTTTCCTAATCTTTCTGTTCAAGCGCCATCTAC” stands 1.06 RPM ratio (pull-down/input); under “GATGATTGTTCTCCCAGCTGATGAATTAACTGTATCGAGTAAACAAATTTTCCTAATCTTTCTGTTCAAGCGCCATCTAC”, 1.14 RPM ratio (pull-down/input); under “GATGATTGTTCTCCCAGCTGATGAATTACCAACCTCGAGTAAACAAATTTTCCTAATCTTTCTGTTCAAGCGCCATCTAC”, 1.04 RPM ratio (pull-down/input).
Take “GATGATTGTTCTCCCAGCTGATGAATTAAGAGTTTCGAGTAAACAAATTTTCCTAATCTTTCTGTTCAAGCGCCATCTAC”: the binding signal was 0.931 RPM ratio (pull-down/input).
Take “GATGATTGTTCTCCCAGCTGATGAATTGCCGTACTCGAGTAAACAAATTTTCCTAATCTTTCTGTTCAAGCGCCATCTAC”: the binding signal is 0.923 RPM ratio (pull-down/input).
As to “GATGATTGTTCTCCCAGCTGATGAATTCGTGCTTTCGAGTAAACAAATTTTCCTAATCTTTCTGTTCAAGCGCCATCTAC”, the binding signal was 1.19 RPM ratio (pull-down/input).
As for “GATGATTGTTCTCCCAGCTGATGAATTTATGAGCTCGAGTAAACAAATTTTCCTAATCTTTCTGTTCAAGCGCCATCTAC”, the binding signal was 0.98 RPM ratio (pull-down/input).
Consider “GATGATTGTTCTCCCAGCTGATGAATTCGTGCGATCGAGTAAACAAATTTTCCTAATCTTTCTGTTCAAGCGCCATCTAC”, for which the binding signal is 0.908 RPM ratio (pull-down/input).
Take “GATGATTGTTCTCCCAGCTGATGAATTCGGAGGTTCGAGTAAACAAATTTTCCTAATCTTTCTGTTCAAGCGCCATCTAC”: the binding signal is 0.763 RPM ratio (pull-down/input).
For “GATGATTGTTCTCCCAGCTGATGAATTGCGTCGCTCGAGTAAACAAATTTTCCTAATCTTTCTGTTCAAGCGCCATCTAC”, the binding signal is 1.01 RPM ratio (pull-down/input).
For the sequence “GATGATTGTTCTCCCAGCTGATGAATTGCCTCTGTCGAGTAAACAAATTTTCCTAATCTTTCTGTTCAAGCGCCATCTAC”, the binding signal is 0.913 RPM ratio (pull-down/input).
For “GATGATTGTTCTCCCAGCTGATGAATTCTCGCCTTCGAGTAAACAAATTTTCCTAATCTTTCTGTTCAAGCGCCATCTAC”, the binding signal was 0.855 RPM ratio (pull-down/input).
With “GATGATTGTTCTCCCAGCTGATGAATTATCCGTGTCGAGTAAACAAATTTTCCTAATCTTTCTGTTCAAGCGCCATCTAC”, the binding signal was 0.975 RPM ratio (pull-down/input).
Under “GATGATTGTTCTCCCAGCTGATGAATTTCGGATATCGAGTAAACAAATTTTCCTAATCTTTCTGTTCAAGCGCCATCTAC” stands 0.957 RPM ratio (pull-down/input); under “GATGATTGTTCTCCCAGCTGATGAATTTCAGGAATCGAGTAAACAAATTTTCCTAATCTTTCTGTTCAAGCGCCATCTAC”, 0.937 RPM ratio (pull-down/input).
Take “GATGATTGTTCTCCCAGCTGATGAATTGGTCTCGTCGAGTAAACAAATTTTCCTAATCTTTCTGTTCAAGCGCCATCTAC”: the binding signal is 0.87 RPM ratio (pull-down/input).
On to “GATGATTGTTCTCCCAGCTGATGAATTAAGAAACTCGAGTAAACAAATTTTCCTAATCTTTCTGTTCAAGCGCCATCTAC”, for which the binding signal is 0.824 RPM ratio (pull-down/input).
Under “GATGATTGTTCTCCCAGCTGATGAATTCACAAAATCGAGTAAACAAATTTTCCTAATCTTTCTGTTCAAGCGCCATCTAC” stands 1.19 RPM ratio (pull-down/input).
Regarding “GATGATTGTTCTCCCAGCTGATGAATTGAAGGCGTCGAGTAAACAAATTTTCCTAATCTTTCTGTTCAAGCGCCATCTAC”, the binding signal was 0.896 RPM ratio (pull-down/input).
For “GATGATTGTTCTCCCAGCTGATGAATTCCTCATGTCGAGTAAACAAATTTTCCTAATCTTTCTGTTCAAGCGCCATCTAC”, the binding signal is 0.883 RPM ratio (pull-down/input).
For the sequence “GATGATTGTTCTCCCAGCTGATGAATTTACGTTTTCGAGTAAACAAATTTTCCTAATCTTTCTGTTCAAGCGCCATCTAC”, the binding signal is 1.56 RPM ratio (pull-down/input).
Consider “GATGATTGTTCTCCCAGCTGATGAATTAGTAACATCGAGTAAACAAATTTTCCTAATCTTTCTGTTCAAGCGCCATCTAC”, for which the binding signal is 1.45 RPM ratio (pull-down/input).
Take “GATGATTGTTCTCCCAGCTGATGAATTACACAGATCGAGTAAACAAATTTTCCTAATCTTTCTGTTCAAGCGCCATCTAC”: the binding signal was 1.18 RPM ratio (pull-down/input).
In the case of “GATGATTGTTCTCCCAGCTGATGAATTGATTTCATCGAGTAAACAAATTTTCCTAATCTTTCTGTTCAAGCGCCATCTAC”, the binding signal is 1.2 RPM ratio (pull-down/input).
As to “GATGATTGTTCTCCCAGCTGATGAATTTGTAGTTTCGAGTAAACAAATTTTCCTAATCTTTCTGTTCAAGCGCCATCTAC”, the binding signal is 1.18 RPM ratio (pull-down/input).
Take “GATGATTGTTCTCCCAGCTGATGAATTACCGCTCTCGAGTAAACAAATTTTCCTAATCTTTCTGTTCAAGCGCCATCTAC”: the binding signal was 0.944 RPM ratio (pull-down/input).
As to “GATGATTGTTCTCCCAGCTGATGAATTAGGACGCTCGAGTAAACAAATTTTCCTAATCTTTCTGTTCAAGCGCCATCTAC”, the binding signal is 0.944 RPM ratio (pull-down/input).

(Values after paper PMC12820563, “FoxP3 forms a head-to-head dimer in vivo and stabilizes its multimerization on adjacent microsatellites”.)
